These results are taken from the supplement of paper PMC11417369.

The other results are listed elsewhere or left out.

In this assay the test system is PF3D7_0420300 AP2 domain 1 (GST-tagged). The experiment in a line: gcPBM binding intensity (ln(normalized median fluorescence intensity)); higher = stronger DNA binding. The gist of the method:
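Using an Agilent 4 × 180k array, primer-extended double-stranded 36-bp intergenic genomic probes and negative controls were exposed for 1 h to GST-fused P. falciparum DNA-binding domains expressed in E. coli. Binding was carried out in 1× PBS with 1% milk, 0.2 mg/ml BSA, 0.5% salmon testes DNA and 0.03% Triton X-100, and protein was detected with Alexa488 anti-GST antibody and a 488 nm scan. Binding intensity is the highest Masliner-normalised natural-log median intensity across replicate spots of either probe orientation.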
Take “TTATTATTATTACTTACGCACACTTTTTTTTTTATT [CACACA_site411]”: the “gcPBM binding intensity (ln)” value is 9.69.
Consider “ATAGGATATTATTCCTGTACATATATATATATATAT [XGTACX_site2108]”, for which the “gcPBM binding intensity (ln)” value is 9.17.
Take GACAATTATATGTAGGTGCATATACAAATTTTTTAA: the “gcPBM binding intensity (ln)” value was determined as 9.11.
As to “TTTTAAAAAAAAAAAAAATAAGATAAAATTAAATAA [GTGCAC_negctrl_site367]”, the “gcPBM binding intensity (ln)” value was determined as 8.87.
In the case of “ATAAAAAATATCACATAAAATAAAAAAAGAAAGGAT [XGTACX_negctrl_site294]”, the “gcPBM binding intensity (ln)” value came out at 9.62.
Turning to “TATATATAAAAATATACACACTGTATTATTGTAATA [CACACA_site5959]”, the “gcPBM binding intensity (ln)” value came to 9.23.
Consider “TATATATATACAGTAGTGCATATATTTAAAATATAT [GTGCAC_site9999]”, for which the “gcPBM binding intensity (ln)” value is 9.18.
To “ATATATAAAAATAAATGTACATATTCATATGATGAT [XGTACX_site3411]” belongs 9.36; to “ATATAAGTATATCTATGTACATACAATATAAATGTA [XGTACX_site2153]”, 9.09; to “TATATACATACATATTGTACTTATAAAGATTAATTT [XGTACX_site2203]”, 9.02.
In the case of “ACCCATATTCTTTTTACACACTTGAATAAAAAATAT [CACACA_site4797]”, the “gcPBM binding intensity (ln)” value came out at 9.36.
The value for “GAGATATAAAAGTGTACACATATTGTTATCCATATT [CACACA_site5441]” was 9.33; that for “TCCCTGATGTTATTTAATATACCATAAAAAAAAAAA [CACACA_negctrl_site1472]” was 8.78; that for “AATAAAAAATAAAAAAGTACATGATGAAAAGGTTTA [XGTACX_site7615]” was 9.49.
With “CACACTTTATAATGTTGTACGATACATTATACCAAA [XGTACX_site941]”, the “gcPBM binding intensity (ln)” value came to 9.17.
With “TATATATATATATATACATGCATACAATTTTATGAG [TGCATGCA_site466]”, the “gcPBM binding intensity (ln)” value came to 9.14.
The value for “ATCTCAAATATAATAAATTATTAGGTATATATATAT [CACACA_negctrl_site1828]” was 9.13.
To “TTTTATTCATCATATTGTACATTCTTGTATTTATAG [XGTACX_site8534]” belongs 9.33; to “ATATACTTACATATTACACACAATATTTTTAAATGG [CACACA_site5916]”, 9.52; to “CTTTTGCCCAAAAAGGTACACACCACAAAGTACATA [CACACA_site8169]”, 9.27.
On to “TTGTATATACTATACACACACATACATACATACATA [CACACA_site814]”, for which the “gcPBM binding intensity (ln)” value is 9.85.
In the case of “TATTTATAATTAAATACACACATATATTATAGATTT [CACACA_site6435]”, the “gcPBM binding intensity (ln)” value came to 9.31.
To “TAAATAATAATAAAATGTACATTATATATGTATATG [XGTACX_site8672]” belongs 9.21; to “TTTTTTTTTTTTTTCTGTACTGATACTTATAGAGTT [XGTACX_site4736]”, 8.9; to “AAATAATAAATATATCGTACAAATATCATATATAAA [XGTACX_site2771]”, 9.33.
To “TCCTGTTGAGAATGGCGTACATATAAATATTATATA [XGTACX_site1841]” belongs 9.07; to “TTTCCTCATTTTATCATACACACTTGTTTATATGTG [CACACA_site8202]”, 9.51; to “TTTTTTCTTTTTATAACACACAGGTGAAAAATAATA [CACACA_site1850]”, 9.02.
As for “TATTACTTTATATATACACACATATAACATAAATGC [CACACA_site3948]”, the “gcPBM binding intensity (ln)” value was 9.42.
To “CAGGTTCTTATATAGTGTACTATAGACATTCAATTG [XGTACX_site7239]” belongs 9.14; to “TCTTGTTATAATAATCAATATATGGGTATACTTATG [CACACA_negctrl_site1618]”, 9.24; to “AAAAGGATTTTTTATACACACACTAACTAATGTATA [CACACA_site2356]”, 9.56.
In the case of “AAAAAAATAAATAAGACACACACAAAAAAAAAAAAA [CACACA_site8404]”, the “gcPBM binding intensity (ln)” value was 9.97.
With “ATCATGGAAAAAACAAATGGGCTACATTACCTTTTG [GTGCAC_negctrl_site487]”, the “gcPBM binding intensity (ln)” value was determined as 9.35.
Consider “TTGGAGTTCATATGTGGTACACATTTAAATATATTT [XGTACX_site5582]”, for which the “gcPBM binding intensity (ln)” value is 9.24.
For the sequence “GATATAAACGTATATGTACATATATATATATATATA [GTGCAC_negctrl_site186]”, the “gcPBM binding intensity (ln)” value came out at 9.5.
The value for “ATAATAAATGTCTTCAATGAAGTGGAAATGCTGTTA [TGCATGCA_negctrl_site238]” was 9.09; that for “ATATATACATAGAATTGTACATAATTTATGTTCATT [XGTACX_site7426]” was 9.26.
Take “CAAACAAATTGTGAAACACACATATATATATATATA [CACACA_site2001]”: the “gcPBM binding intensity (ln)” value came to 9.23.
To “AACGTATTATTTATCTGTACAAAATAATAACGTATT [XGTACX_site813]” belongs 9.15; to “TTTTGTTTTTTCAATGTGCACTTAGGATGTTTTTAT [GTGCAC_site9565]”, 9.53.
“ATCCAAATTAATAATAGTACTTTTAAGTCCTATGTA [XGTACX_site2452]”: the “gcPBM binding intensity (ln)” value turned out to be 9.06.
In the case of “TAAATAAAAATACAGTGTACTTTTTTCTATTTAAAA [XGTACX_site3288]”, the “gcPBM binding intensity (ln)” value amounted to 8.84.
Turning to “CCAAACAAAAAAAAAAGTACATAAAACACCTATTTG [XGTACX_site5645]”, the “gcPBM binding intensity (ln)” value turned out to be 9.46.
Turning to “ATAATTAGGGTGTATTTCATTTCATTTCATTTTATT [CACACA_negctrl_site1418]”, the “gcPBM binding intensity (ln)” value worked out at 9.66.
To “AATATATAAATATATACACACAAAAACATATATATA [CACACA_site1318]” belongs 9.8; to “TATATACAAATATGTACACACATTACAGATGTACAT [CACACA_site6586]”, 9.44; to “TAGAAAAAATAAAATAGTACACATCCAAAAAAAAAA [XGTACX_site7829]”, 9.6.
For “AAAAAAAAAAACAGTTGTACATTTATTTATATATTA [XGTACX_site217]”, the “gcPBM binding intensity (ln)” value came to 9.13.
To “AAAATAAGGACTGTTGTGCACTGGATTTGTGGTTAC [GTGCAC_site9830]” belongs 9.44; to “ATTTTAACGAATATATGTACATAAAAAAAAAAAAGA [XGTACX_site8750]”, 9.37; to “TAAGTAAAAAATTAAAAAGATTACAGGGGGGGAAGG [XGTACX_negctrl_site491]”, 9.96.
As for “GACATAAGATAATTACACATTGTTTCCTCAATAATA [CACACA_negctrl_site1616]”, the “gcPBM binding intensity (ln)” value was 9.24.
In the case of “TTTCTTTAATATATAGTGCATGTAAATTTTACAATA [GTGCAC_site9679]”, the “gcPBM binding intensity (ln)” value was determined as 9.05.
Consider TAATATAATATATAGGTGCAATATTAACAAAAATTT, for which the “gcPBM binding intensity (ln)” value is 9.37.
To “ATTAATATGAATAAATGTACAAATGAATGATTACAT [XGTACX_site6044]” belongs 9.31; to “ATAATGTGTTAGGCGTGTACACAATTGTATGGTTTA [XGTACX_site2377]”, 9.45; to “AAATAAAATCATAATGTGCGCATATAAATTTGTAGG [GTGCAC_site9662]”, 9.45.
For “ATATATATATATGAAAGTACACATCTATTTTTTCTT [XGTACX_site6059]”, the “gcPBM binding intensity (ln)” value is 9.28.
To “AAGGTAGATATATTTAGTACGTAATTTTTTTTTTTT [XGTACX_site7288]” belongs 9.29.
Consider “AAAATAAAATTTACTTGTACTAAAGGGATACGCGCA [XGTACX_site1453]”, for which the “gcPBM binding intensity (ln)” value came to 9.17.
On to “TAAATATTATTTATATGTACTGATATATTAAATAAA [XGTACX_site3446]”, for which the “gcPBM binding intensity (ln)” value stood at 8.8.
Take “AATTAATATTTAAATTGTACATGAACATTTTAATGT [XGTACX_site462]”: the “gcPBM binding intensity (ln)” value was found to be 8.97.
The value for “GTCACAAAATAAATTAAACACACAACATCATATATG [CACACA_site8182]” was 9.65; that for “AATATAAATTTATATTGTACATATTTTATTATATGT [XGTACX_site905]” was 9.26; that for “GTGTATCAATATGTAGGTACGTAAATATAGATAATA [XGTACX_site5526]” was 9.38.
Consider “TTAAATAAAATTTATTGTACATAAAATTAAATATAG [XGTACX_site3039]”, for which the “gcPBM binding intensity (ln)” value stood at 8.96.
Consider “CATAATTTACATAAAAGTACATATATATTAATGACG [XGTACX_site6247]”, for which the “gcPBM binding intensity (ln)” value stood at 9.27.
To “TTTATTCCCGCATATAGTACATATACCATTTAATGT [XGTACX_site7011]” belongs 9.4; to “GTAAAAAAAGAGCACACACACAAAAACACCCACAAA [CACACA_site1292]”, 10.
As to “AAACTTGTAAGAAACACACACACACGCATATAAATA [CACACA_site6518]”, the “gcPBM binding intensity (ln)” value turned out to be 10.
With “ATAAATAAAATATGCACACAAATATAGGAAACAACA [CACACA_site2561]”, the “gcPBM binding intensity (ln)” value stood at 9.93.
The value for “AATATTTAAGTACTGGTGCGTGTATATAATGATTAA [GTGCAC_site9633]” was 9.34; that for “CATAAATACACTGTAGCGCACACGGCCAAAAAAAAA [CACACA_site8537]” was 9.42.
To “ATATAATATGGTATTACACACTGTTATAAGTATGGC [CACACA_site2094]” belongs 9.52.
To “AAAAGGGATAAATGTGCGCACATGTTATATATATAT [GTGCAC_site9534]” belongs 9.49; to “ACATATCTACACAGTGGTACTTCCATTAATATATAC [XGTACX_site3827]”, 9.51.
As to “ATTTATTCAAATGGTTGTACTACAAATAAACATTAT [XGTACX_site3378]”, the “gcPBM binding intensity (ln)” value turned out to be 9.2.
Regarding “TCATAAATTAAACAAACACACACGTTCTTTTATTTA [CACACA_site713]”, the “gcPBM binding intensity (ln)” value was 9.52.
The value for “AACAATGTTGTACATACACACACACTAATAAAAAAT [CACACA_site8758]” was 10; that for “AATACATACAGACACACACACACATATAAATAAATA [CACACA_site7642]” was 10.2.
With “GCTCATTGAAGTTATACACACCAAATATGTAAATAT [CACACA_site7217]”, the “gcPBM binding intensity (ln)” value came out at 9.39.
To “AGAAGCATACATCAAGCACACACACCCACACCCACA [CACACA_site8014]” belongs 9.99; to “TCCTTTTCTTAATTTAAAAAATATAAAAAAAACGAA [CACACA_negctrl_site1821]”, 8.75; to “ACACGTTTATATAAAAAATTAAAATTTTTCTTATTT [CACACA_negctrl_site1523]”, 9.17.
To “ATAACAAAATAAAACACACACACAAATGTACAGATA [CACACA_site5358]” belongs 10.3; to “ATTTTTGTGTTTACACGTACGTGTAAATTATTTTTC [XGTACX_site1869]”, 9.46; to “TATTCATGTTTAAAAAGTACATATTATGGTAACATT [XGTACX_site4533]”, 9.12.
